Measurements: PubChem BioAssay AID1346428 (National Center for Advancing Translational Sciences (NCATS), 2018)
Values joined by “and” are separate entries in the source; they are usually repeats but may differ in a detail not shown here. Identical values can stand only once. The whole screen tested about 48,000 compounds, of which about 1,200 (2.5%) were called active. Another 2% or so got no clear call; they are omitted.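 How the source made its calls: active means activation of at least 60% and not above a set upper limit (about 1 call in 100 departs from these limits); inconclusive means activation of 40% to 60%, or above that upper limit; inactive means activation under 40%.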 Some of the results follow.

These compounds were tested against Probable G-protein coupled receptor 32 (Homo sapiens) (UniProt O75388) (assay: qHTS for Agonists of Human Resolvin D1 Receptor DRV1). Conditions: CHO-K1 GPR32 beta-arrestin PathHunter luminescence, 90 min; at 76.9 µM; active compounds read high; zero percent set by DMSO-only wells.
UniProt O75388, sequence (O75388 whole entry, looked up, the tested form may be a part): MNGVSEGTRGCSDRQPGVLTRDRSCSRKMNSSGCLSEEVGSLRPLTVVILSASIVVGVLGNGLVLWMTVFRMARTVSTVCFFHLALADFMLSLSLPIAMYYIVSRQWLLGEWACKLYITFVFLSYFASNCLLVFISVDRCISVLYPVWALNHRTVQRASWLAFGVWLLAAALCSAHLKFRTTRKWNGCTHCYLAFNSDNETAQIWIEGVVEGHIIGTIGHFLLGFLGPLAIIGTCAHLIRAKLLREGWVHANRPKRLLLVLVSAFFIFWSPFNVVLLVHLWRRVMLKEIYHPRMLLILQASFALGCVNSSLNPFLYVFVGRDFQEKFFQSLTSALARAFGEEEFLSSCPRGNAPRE
Method in brief: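 Agonism was scored as beta-arrestin recruitment to ProLink-fused GPR32 in stably transfected CHO-K1 cells, giving a chemiluminescent beta-Gal signal; compounds were incubated 90 min at 37 °C.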
Further: 0% is about no effect.

Row | SMILES | activation
1 | Cc1cccc(C)c1NC(=O)Cn1cc(S(=O)(=O)Cc2ccc(F)cc2)c2ccccc21 | inactive: -20.7%
2 | COc1ccc(C(=O)Nc2nnc(SCc3cc(=O)n4cc(Cl)ccc4n3)s2)cc1 | inactive: -5.5%
3 | Cc1cc(C)cc(NC(=O)Cn2c(=O)n(CC(=O)NCCc3ccccc3)c(=O)c3ccccc32)c1 | inactive: 48.5%
4 | Cc1ccc(CNC(=O)CN2C(=O)COc3ccccc32)cc1 | inactive: -5.96%
5 | Cc1ccc(C(=O)c2cn(Cc3c(F)cccc3Cl)c3nc(C)ccc3c2=O)cc1 | active: 82.2%
6 | Cc1ccc(Cl)cc1NC(=O)c1ccc2nc(CCc3ccccc3)oc2c1 | inactive: -2.73%
7 | CCc1ccc(C(=O)Nc2cccc(-c3nc4cc(C(C)C)ccc4o3)c2)cc1 | inactive: 7.33%
8 | CC(=O)c1cccc(NC(=O)Nc2cc3c(cc2N2CCCC2)n(C)c(=O)n3C)c1 | inactive: -3.98%
9 | Cc1ccc(-c2nc(CNC(=O)NC3CCCCC3)c(C)o2)cc1 | inactive: -16.6%
10 | COc1ccc(CNc2nc(-c3ccco3)nn2C(=O)c2ccccc2C)cc1 | inactive: -16.9%
11 | CCOc1ccc(Nc2oc(-c3ccc(COc4ccc(C)cc4)o3)nc2C#N)cc1 | active: 67.3%
12 | CCn1cc(C(=O)NCc2ccccc2Cl)c(=O)c2cc(S(=O)(=O)N3CCCCCC3)ccc21 | inactive: -5.98%
13 | CCCCC(=O)Nc1ccc(C(=O)OCc2cc(=O)n3ccsc3n2)cc1 | inactive: 3.03%
14 | CSCC[C@H](NC(=O)[C@H](Cc1c[nH]c2ccccc12)NC(=O)CCNC(=O)OC(C)(C)C)C(=O)N[C@@H](CC(=O)O)C(=O)N[C@@H](Cc1ccccc1)C(N)=O | inactive: 20.6%
15 | O=S(=O)(c1ccccc1)c1nc(-c2ccco2)oc1SCc1ccc(F)cc1 | inactive: -14.2%
16 | COc1ccc(Cn2c(SCc3ccc(C(=O)NCc4cccs4)cc3)nc3ccncc32)cc1 | inactive: 5.15%
17 | CCN(C(=O)c1cc(S(=O)(=O)N2CCCC2)cn1C)c1ccc(OC)cc1 | inactive: -10.9%
18 | COc1ccc(NC(=O)c2nnn(CC(=O)Nc3cc(C)cc(C)c3)c2N)c(OC)c1 | inactive: 3.39%
19 | O=C(CSc1nnc(-c2ccc(Cl)cc2)c(-c2ccc(Cl)cc2)n1)NC1CCCC1 | inactive: -16.2%
20 | CCOC(=O)c1sc2cccc(F)c2c1S(=O)(=O)Nc1ccccc1F | inactive: -10%
21 | O=C(CCCn1c(=O)[nH]c2ccsc2c1=O)N1CCN(c2ccc(Cl)cc2)CC1 | inactive: 29.8%

Row | SMILES | activation
22 | Cc1ccc(C)c(NC(=O)Cn2c(=O)n(CC(=O)NCCc3ccccc3)c(=O)c3ccccc32)c1 | inactive: 11.1%
23 | Cc1ccc(NC(=O)Cn2c(=O)cc(-c3ccccc3)c3c(C)nn(C)c32)c(Cl)c1 | inactive: -1.91%
24 | COC(=O)c1ccc(NC(=O)CSc2nc3cc4ccccc4cc3[nH]2)cc1 | active: 93.7%
25 | CCOCCCNC(=O)Cn1nc(CC)n2c(cc3c(OC)cccc32)c1=O | inactive: -12.3%
26 | N#Cc1ccccc1NC(=O)C(=O)NCC(c1cccnc1)N1CCc2ccccc21 (stereo unspecified) | inactive: -23.3%
27 | COc1cc(OC)c(NC(=O)C(C)n2nc(-c3ccc(C)cc3)c3c(c2=O)CCCC3)cc1Cl (stereo unspecified) | inactive: 3.74%
28 | O=C(Nc1cc(F)ccc1F)c1cnn2c(C(F)F)cc(-c3ccccc3)nc12 | inactive: 12.4%
29 | CCOC(=O)CC(NC(=O)CCc1c(C)nc2cc(-c3ccccc3)nn2c1C)c1ccc(C)cc1 (stereo unspecified) | inactive: -1.53%
30 | CC(C)NNC(=O)c1ccncc1 | inactive: -15.9% and inactive: -5.66%
31 | O=C(c1ccccc1)c1ccc2nc(N3CCN(c4ccc(F)cc4)CC3)c3nncn3c2c1 | inactive: -43.2%
32 | Cc1ccc(NC(=O)C2CCCN(c3ncnc4onc(C)c34)C2)cc1Cl (stereo unspecified) | inactive: 4.58%
33 | COc1ccccc1-c1cc2nc(C)c(CCC(=O)NC3CCCCC3)c(C)n2n1 | inactive: 19.9%
34 | Cc1ccc(S(=O)(=O)c2nnn3c2nc(N2CCN(c4cccc(C)c4C)CC2)c2ccccc23)cc1C | inactive: 1.52%
35 | CC(C)CCn1c(=O)c2sccc2n2c(CCCC(=O)Nc3ccc(C(C)C)cc3)nnc12 | inactive: -13.8%
36 | CCOC(=O)CC(NS(=O)(=O)c1cc(-c2cc(C)no2)ccc1C)c1ccc(C)cc1 (stereo unspecified) | inactive: 8.73%
37 | COc1ccc(N2CCN(c3nc4ccccc4n4c(C)nnc34)CC2)cc1 | inactive: -17.6%
38 | CCOc1ccc2nc(NC(=O)c3nc(SCc4ccc(C)cc4)ncc3Cl)sc2c1 | inactive: 8.45%
39 | CCOc1ccc(C(=O)Nc2ccc3nc4c(c(Nc5ccccc5OC)c3c2)CCCC4)cc1 | inactive: -31.6%
40 | Cc1cccc(C)c1NC(=O)CN(C)S(=O)(=O)c1ccc2[nH]c3c(c2c1)CCCC3 | active: 62.3%
41 | O=C(CC1N=C2c3ccccc3N=C(SCC(=O)Nc3ccccc3F)N2C1=O)NCc1ccc2c(c1)OCO2 (stereo unspecified) | inactive: -23.8%
42 | Cc1ccc2occ(CC(=O)Nc3c(C(=O)Nc4ccc(Cl)cc4)oc4ccccc34)c2c1 | inactive: 0.65%

Row | SMILES | activation
43 | CC(C)COc1ccc(C(=O)N2CCC(c3nc4ccccc4s3)CC2)cc1 | inactive: -10.8%
44 | Cc1ccc(CSc2nncn3c2cc2sccc23)cc1 | inactive: -10.5%
45 | CN(C(=O)CSc1nc2ccccc2[nH]1)c1ccc(F)cc1 | inactive: -1.39%
46 | COc1ccc(OC)c(S(=O)(=O)NCc2ccc3c(c2)CCN3C(=O)c2cccc(C)c2)c1 | inactive: -18.4%
47 | Cc1ccc(CSCCNC(=O)CN(c2cccc(C)c2C)S(=O)(=O)c2ccccc2)cc1 | inactive: 2.86%
48 | COc1ccccc1NC(=O)C1=C(C)Nc2nc(SCC(=O)c3ccc(C)cc3)nn2C1c1ccc(F)cc1 (stereo unspecified) | inactive: 0.968%
49 | O=C(NCc1ccc(Cl)cc1)c1cnc(N2CCOCC2)c2ccccc12 | inactive: -2.4%
50 | CCCOCc1cc(CN2CCN(c3ccccc3OC)CC2)c(O)c2ncccc12 | inactive: 11.6%
51 | CCOC(=O)c1c(NC(=O)C(C)Sc2cn(CCNC(=O)c3ccc(OC)cc3)c3ccccc23)sc2c1CCC2 (stereo unspecified) | inactive: -6.06%
52 | Cc1cccc(N2C(=O)N(Cc3ccc(C(C)(C)C)cc3)c3ccccc3S2(=O)=O)c1 | inactive: -3.66%
53 | COc1ccc(CNC(=O)c2ccc3c(c2)CCN3S(=O)(=O)c2ccccc2)cc1 | inactive: -3.86%
54 | CC1CCCN(S(=O)(=O)c2cc(C(=O)NCCc3ccccc3)n(C)c2)C1 (stereo unspecified) | inactive: 9.58%
55 | COCCCOc1ccnc(CS(=O)c2nc3ccccc3[nH]2)c1C (stereo unspecified) | inactive: 11.1%
56 | Cc1ccccc1CNC(=O)c1ccc(Cn2c(SCc3ccccc3)nc3cccnc32)cc1 | inactive: -4.11%
57 | CC(C)c1ccc(NC(=O)Cn2c(=O)oc3cc(S(=O)(=O)N4CCCC4)ccc32)cc1 | active: 96.7%
58 | Cc1noc2ncnc(N3CCCC(C(=O)Nc4cccc(C(F)(F)F)c4)C3)c12 (stereo unspecified) | inactive: 36.5%
59 | CCc1ccc(NC(=O)c2ccc(F)c(S(=O)(=O)N3CCN(c4cc(C)ccc4C)CC3)c2)cc1 | inactive: -16.9%
60 | CCc1c(C)c(C#N)c2nc3ccccc3n2c1Nc1cccc(C(F)(F)F)c1 | inactive: 13.2%
61 | Cc1cc(C)c2c(=O)c3c(oc2c1)C(=O)N(Cc1ccco1)C3c1ccccc1F (stereo unspecified) | inactive: -9.94%
62 | COc1ccc(-c2nc(S(=O)(=O)c3ccc(C)cc3)c(NCc3ccccc3)o2)cc1 | inactive: 9.52%
63 | Cn1cc(-c2cc3n(n2)CCC(=O)N3CCCC(=O)Nc2ccccc2F)c2ccccc21 | inactive: 4.73%

Row | SMILES | activation
64 | O=C1c2cccc(O)c2C(=O)c2c(O)cccc21 | inactive: 15.9%
65 | Cc1c(C(=O)NCc2ccccc2Br)oc2ccc3c(c12)C(=O)CC(C)(C)O3 | inactive: -31.1%
66 | COc1ccc(NC(=O)c2sc3nc4c(cc3c2N)CN(Cc2ccccc2)CC4)cc1OC | inactive: 31%
67 | CCc1cccc(NC(=O)C(CC)n2nc(C)c3sc4ccccc4c3c2=O)c1 (stereo unspecified) | inactive: -6.29%
68 | O=C(NCCCN1CCN(c2ccc(F)cc2)CC1)c1ccc2nc(CCc3ccccc3)oc2c1 | inactive: -9.43%
69 | COc1ccc(Nc2nc(-c3ccccc3F)nc3ccccc23)cc1OC | inactive: -13.4%
70 | CC(C)c1ccc(NC(=O)C(Cc2ccccc2)NS(=O)(=O)c2ccc3c(c2)oc(=O)n3C)cc1 (stereo unspecified) | inactive: -1.51%
71 | Cc1noc(-c2ccc(-c3noc(-c4ccc(C(F)(F)F)cc4)n3)cc2)n1 | inactive: -5.95%
72 | CCOc1ccc(CC(=O)NCc2ccc3c(c2)CCN3C(C)=O)cc1OCC | inactive: -13.8%
73 | CN(C)CCNC(=O)Cn1nc(N2CCN(c3ccccc3)CC2)ccc1=O | inactive: -1.5%
74 | Cc1ccc(C)c(S(=O)(=O)c2nnn3c2nc(N2CCCCC2)c2sccc23)c1 | inactive: -29.9%
75 | COc1ccc(NC(=O)CCc2nnc3n(CC(C)C)c(=O)c4ccccc4n23)cc1OC | inactive: 10.7%
76 | CC(C)(C)OC(=O)N1CCC(c2c(C(=O)N3CCN(c4ncccn4)CC3)cnn2-c2cccc(F)c2)CC1 | inactive: -3.22%
77 | COc1ccc(OC)c(NC(=O)Cn2cc(C(=O)c3ccc(Cl)cc3)c(=O)c3cc(OC)ccc32)c1 | inactive: 4.33%
78 | CC(=O)Nc1nonc1-c1nnc(SCc2ccccc2Cl)n1C | inactive: -6.26%
79 | Cc1ccc(O)c(NC(=O)COCc2cc(-c3ccco3)on2)c1 | inactive: -32.8%
80 | COc1ccc(-c2cc(C(=O)Oc3cccc(C)c3C)c3ccccc3n2)cc1 | inactive: -14%
81 | COc1ccc(NC(=O)c2ccc3c(c2)CCN3S(=O)(=O)c2ccccc2)cc1 | inactive: 4.25%
